Test results as given in the RNAGym collection of RNA variant scans (doi:10.1073/pnas.2313332121).
Variants at the floor of the assay are shown more often than the library holds them.

B1: TPR 5TU (parent)
chain: GGAUCUUCUCGAUCUAACAAAAAAGACAAAUCUGCCACAAAGCUUGAGAGCAUCUUCGGAUGCAGAGGCGGCAGCCUUCGGUGGCGCGAUAGCGCCAACGUUCUCAACUAUGACACGCAAAACGCGUGCUCCGUUGAAUGGAGUUUAUCAUG

Variants of: B1
Assay: polymerase ribozyme fitness, log enrichment relative to wild type (log ratio); higher = more active; in vitro selection for triplet polymerase activity
In short: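 Mutant libraries of both subunits of a heterodimeric triplet polymerase ribozyme were PCR-built, transcribed, and selected once in triplicate, with frozen incubation at −7 °C and capture of gel-excised extended constructs on streptavidin beads before RT-PCR. Illumina sequencing of input and output libraries was filtered to genotypes with ≥10 input reads and ≥1 read per output. Fitness is the logarithm of genotype enrichment over wild-type enrichment, using inverse-variance-weighted replicate averages. The logarithm is base 2.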
For GGAUCUUCUCGAUCUAACAAAAAAGACAAAUCUGCCGCAAAGCUUGAGAGCAUCUUCGGAUGCAGAGGCGGCAGCCUUCGGUGGCGCGAUAGCGCCAACGUUCUCAACUAUGACACGCAAAACGCGUGCUUCGCUGAAUGGAGUUUAUCAUG [A37G C131U U134C], the “polymerase ribozyme fitness (log ratio)” value was -1.56.
With GGAUCUUCUCGAUCUAACAAAAAAGACAAAUCUGCCGCAAAGCUUGAGAGCAUCUUCGGAUGCAGAGACGGCAGCCUUCGGUGGCGCGAUAGCGCCAACGUUCUCAACUAUGACACGCAAAACGCGUGCUCCGUUGAAUGGAGUUUAUCAUG [A37G G68A] the “polymerase ribozyme fitness (log ratio)” value was no more than -4.2.
In the case of GGAUCUUCUCGAUCUAACAAAAAAGACAAAUCUGCCGCAAAGCUUGAGAGCAUCUUCGGAUGCAGAGGCGGUAGCCUUCGGUGGCGCGAUAGCGCCGACGUGCUCAACUAUGACACGUAAAACGCGUGCUCCGUUGAAUGGAGUUUAUCAUG [A37G C72U A97G U102G C118U], the “polymerase ribozyme fitness (log ratio)” value is reported as no more than -4.2.
In the case of GGAUCUUCUCGAUCUAACAAAAAAGACAAAUCUGCCGCAAAGCUUGAGAGCAUGUUCGGAUGCAGAGGCGGCAGCCUUCGGUGGCGCGUUAGCGCCGACGUUCUCAACUAUGGCACGCAAAACGCGUGCACCGUUGAAUGGAGUUUAUCAUG [A37G C54G A89U A97G A113G U130A], the “polymerase ribozyme fitness (log ratio)” value is reported as no more than -4.2.
In the case of GGAUCUUCUCGAUCUAACAAAAAAGACAAAUCUGCCGCAAAGCUUGACAGCAUCUUCGGAUGCAGAGGCGGCAGCCUUCGGUGGCGCGAUAGAGCCAACGUUCUCAACUAUGACACGCAAAACGCGUGCUCCGUUGAAUGGAGUUUAUCAUG [A37G G48C C93A], the “polymerase ribozyme fitness (log ratio)” value is reported as no more than -4.2.
For GGAUCUUCUCGAUCUAACAAAAAAGACAAAUCUGCCGCAAAGCUUGAGAGCAUCUUCGGAUGCAGAAGCGGCAGCCUUGGGUGGCGCGAUAGCGCCAACGUUCUCAACUAUGACACGCAAAACGCGUGCUCCGUUGAAUGGAGUUUAUCAUG [A37G G67A C79G], the “polymerase ribozyme fitness (log ratio)” value was no more than -4.2.
In the case of GGAUCUUCUCGAUCUAACAAAAAAGACAAAUCUGCCGCAAAGCUUGAGAGCAUCUUCGGAUGCAGAGGCGGCAGCCUUCGGUGGCGCGAUAGCGCCAACGUUCUCAACUAUGACACGCAAAACGCGUGCUCCGUUGAUUGGAGUUUAUCAUG [A37G A138U], the “polymerase ribozyme fitness (log ratio)” value is reported as no more than -4.2.
In the case of GGAUCUUCUCGAUCUAACAAAAAAGACAAAUCUGCCGCAAAGCUUGAGAGCAUCUUCGGAUGCAGAGGCGGCAGCCUUGGGUGGCGCGAUAGCGCCAACGUUCUCACCUAUGACACGCAAAACGAGUGAUCCGUUGAAUGGAGUUUAUCAUG [A37G C79G A107C C125A C129A], the “polymerase ribozyme fitness (log ratio)” value is reported as no more than -4.2.
With GGAUCUUCUCGAUCUAACAAAAAAGACAAAUCUGCCGCAAAGCUUGAGAGCAUCUUCGGAUGCAGAGGCGGCAGCCUUCGGUGGCGAGAUAGCGCCAACGUUCUCAACUAUGACACGCAAAACGCGUGCUCCGUUGAAUGGAGUUUAUCAUG [A37G C87A] the “polymerase ribozyme fitness (log ratio)” value was no more than -4.2.
With GGAUCUUCUCGAUCUAACAAAAAAGACAAAUCUGCCGCAAAGCUUGAGAGCAUCUUCGGGUGCAGAGGCGGCAGCCUUCGGUGGCGUGAUAGCGCCAACGUUCUCAACUAUGACACGCAAAACGCGUGCUCCGUUGAAUGGAGUUUAUCAUG [A37G A60G C87U] the “polymerase ribozyme fitness (log ratio)” value was -1.88.
In the case of GGAUCUUCUCGAUCUAACAAAAAAGACAAAUCUGCCGCAAAGCUUGAGAGCAUCUUCGGAUGCAGAGGCGGCAGCCUUCGGUGGCGCGAUAGCGCCAACGUUCUUAUCUAUGACACGCAAAACGCGUGCGCCGUUGAAUGGAGUUUAUCAUG [A37G C105U A107U U130G], the “polymerase ribozyme fitness (log ratio)” value is reported as no more than -4.2.
For GGAUCUUCUCGAUCUAACAAAAAAGACAAAUCUGCCGCAAAGCUUGAGAGCAUCUUCGUAUGCAGAGGCGGCAGCCUUCGGUGGCACGAUAGCGCCAAAGUUCUCAACUAUGACACGCAAAACGCGUGCCCCGUUGAAUGUAGUUUAUCAUG [A37G G59U G86A C99A U130C G141U], the “polymerase ribozyme fitness (log ratio)” value was no more than -4.2.
In the case of GGAUCUUCUCGAUCUAACAAAAAAGACAAAUCUGCCGCAAAGCUUGAGAGCAUCUUCGGAUGCAGAGGCGGCAGCCUUCGGUGGCGAGAUAGCGCCAACGUUCUCAACUAUGCCACGCAAAACGCGUGCUCCGUUGAAUGGAGUUUAUCAUG [A37G C87A A113C], the “polymerase ribozyme fitness (log ratio)” value is reported as no more than -4.2.
With GGAUCUUCUCGAUCUAACAAAAAAGACAAAUCUGCCGCAAAGCUUGAGAGCAUCUUGGGAUGCAGAGGCGGCAGUCUACGGUAGCGCGAUAGCGCCAACGUUGUCAACUAUGACACGCAAAACGCGUGCUCCGUUGAAUGGAGUUGAUCAUG [A37G C57G C75U U78A G83A C103G U146G] the “polymerase ribozyme fitness (log ratio)” value was no more than -4.2.
With GGAUCUUCUCGAUCUAACAAAAAAGACAAAUCUGCCGCAAAGCUUGAGAGCAUCUUGGGAUGCAGAGGCGGCAGCCUUCGGUGGCGCGAUAGCGCCGACGUUCUCAACUAUGACACGCAAAACGCGUGCUCCGUUGAAUGGAGUUUAUCAUG [A37G C57G A97G] the “polymerase ribozyme fitness (log ratio)” value was -2.57.
For GGAUCUUCUCGAUCUAACAAAAAAGACAAAUCUGCCGCAAAGCUUGAGGGCAUCUUCGGCUCCAGAGGCGGCAGCCUUCGGUGGCGCGAUAGCUCCAACGUACUCAACUAUGACACGCAAAACGCGUGCUCCGUUGAAUGGAGUUUAUCAUG [A37G A49G A60C G62C G94U U102A], the “polymerase ribozyme fitness (log ratio)” value was no more than -4.2.
With GGAUCUUCUCGAUCUAACAAAAAAGACAAAUCUGCCGCAAAGCUUGAGAGCGUCUUCGGAUGCAGAGGAGGCAGCCUUCGGUGGCGCGAUAGCGCCAACGUUCUCAACUAUGACACGCAAAACGCGUGCUCCGUUGAAUGGAGGUUAUCAUG [A37G A52G C69A U144G] the “polymerase ribozyme fitness (log ratio)” value was -4.11.
With GGAUCUUCUCGAUCUAACAAAAAAGACAAAUCUGCCGCAAAGCUUGAGAGCAUCUUCAGAUGCGGAGGCGGCAGCCUUCAGUGGCGCGAUAGCGCCAACGUUCUCAACUAUGACACGCAAAACGCGUGCUCCGGUGAAUGGAGUUUAUCAUG [A37G G58A A64G G80A U134G] the “polymerase ribozyme fitness (log ratio)” value was no more than -4.2.
In the case of GGAUCUUCUCGAUCUAACAAAAAAGACAAAUCUGCCGGAAAGCUUGAGAGCAUCUUCGGAUGCAGAGGCGGCAGCCUUCGGUUGCGCGAUAGCGCCAACGUUCUCAACUAUGACACGAAAAAUGCGUGCUCCGUUGAAUGGAGUUUAUCAUG [A37G C38G G83U C118A C123U], the “polymerase ribozyme fitness (log ratio)” value is reported as -4.05.
